Data: PubChem BioAssay (NCI)
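A five-concentration, 48-hour dose response in 96-well plates underlies each endpoint, interpolated linearly between surrounding concentrations. GI50: concentration for 50% inhibition of growth. The concentration for full growth arrest is given as TGI.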

Tested on: NCI-H322M lung
Assay: NCI-60 cell line screen, 48 h

Q: With Cc1nn(-c2ccccc2)cc1/C=N/Nc1nc(Nc2ccccc2)nc(Nc2ccc(S(N)(=O)=O)cc2)n1 as the compound, how does the GI50 read?
A: 2.44 µM

Q: And the TGI?
A: 5.98 µM

Q: How did the GI50 turn out when CS(=O)(=O)Nc1cc(-c2ccc3ncc(C#N)c(NCc4ccccc4)c3c2)cnc1Cl was run?
A: 0.402 µM

Q: And the TGI?
A: 7.9 µM

Q: For Nc1nc(N)c2c(n1)NC(c1ccc(C(F)(F)F)cc1)CC(c1ccc(Nc3nc(NCCO)nc(Nc4ccc(Cl)cc4)n3)cc1)=N2 (stereo not given), which GI50 is on record?
A: 1.66 µM

Q: What about the TGI of the same compound?
A: 3.06 µM

Q: O=C1Nc2cc(OC(F)(F)F)ccc2Oc2ccc(-c3ccnc(N4CC[C@H](O)C4)c3)cc21 was tested. Which GI50 did it give?
A: 0.0795 µM

Q: And the TGI?
A: 14 µM

Q: C[C@]12CC[C@H](O)C[C@@H]1CC[C@@H]1[C@@H]2CC[C@@]2(C)[C@H]1CC[C@@H]2[C@](C)(O)CCc1ccc(F)cc1 was tested. Which GI50 did it give?
A: 10.7 µM

Q: What about the TGI of the same compound?
A: 25.5 µM
